System: CC(=O)N1Cc2ccccc2C[C@H]1C(=O)NCC(=O)N1C2CCCCC2C[C@H]1C(=O)N[C@@H](CCCNC(=N)N)C(=O)Nc1ccc2c(CC(N)=O)cc(=O)oc2c1
Experiment: Substrate activity at Granzyme B (unknown origin) expressed in Pichia pastoris incubated for 30 mins by fluorescence based assay
Settings: Homo sapiens

Granzyme B (Homo sapiens) (letters omitted)
Not Active: Km | kcat | kcat/Km
